Among the data in the supplement of paper PMC4604168 (melanoma cell lines) are cell count values, retold here.

This is one part of the list. Many values rest on one well or one pass, so single values are uncertain.
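Note: cells treated in 1,536-well plates, then fixed and DAPI-stained, with nuclei counted from automated high-throughput microscope images.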

The test system of this experiment is A101D. The experiment in a line: cell count relative to DMSO control; melanoma cells; higher = more viable cells. To be noted: library dose: standard library concentration; 72 h.
Molecule `C[C@@H]1CCN(C(=O)CC#N)C[C@@H]1N(C)c1ncnc2[nH]ccc12` + Cc1cc([N+](=O)[O-])ccc1NS(=O)(=O)c1cc(Cl)ccc1Cl [FH535] (first compound 5 µM, partner dose 5 µM) came in with a cell count of 74.3%.

For the molecule `COc1cc(Nc2ncc(F)c(Nc3ccc4c(n3)NC(=O)C(C)(C)O4)n2)cc(OC)c1OC` [Tamatinib] + COc1cc2ncnc(Nc3ccc(Oc4ccccc4)cc3)c2cc1OC [SrcI1] (first compound 2 µM, partner dose 10 µM), the cell count was found to be 42.4%.

For `Cn1cncc1[C@@](N)(c1ccc(Cl)cc1)c1ccc2c(c1)c(-c1cccc(Cl)c1)cc(=O)n2C` [tipifarnib] + Cn1cc(/C=C2\C(=O)Nc3cccnc32)c2ccccc21 [GW441756] (first compound 0.05 µM, partner dose 2 µM), the cell count worked out at 101%.

As to `O=C(Nc1cccc(Cl)c1)Nc1ncc(CCNc2ncnc3ccsc23)s1` + COc1ccc(COc2ccc(Cc3cnc(N)nc3N)cc2OC)cc1 [GW2580] (first compound 0.004 µM, partner dose 5 µM), the cell count is 93.7%.

On to `O=C(Nc1cccc(Cl)c1)Nc1ncc(CCNc2ncnc3ccsc23)s1` + Oc1nc(-c2ccc(C(F)(F)F)cc2)nc2c1CSCC2 [XAV939] (first compound 0.004 µM, partner dose 10 µM), for which the cell count stood at 82.7%.

Molecule `C[C@@H]1CCN(C(=O)CC#N)C[C@@H]1N(C)c1ncnc2[nH]ccc12` + CCN(CC)CCCCNc1ncc2cc(-c3cc(OC)cc(OC)c3)c(NC(=O)NC(C)(C)C)nc2n1 [PD173074] (first compound 5 µM, partner dose 0.5 µM) registered a cell count of 108%.

With `O=C(O)c1ccc(-c2c[nH]c3ncc(-c4ccccc4)cc23)cc1C1CCCC1` + O=C1NC(=O)/C(=C/c2ccc(-c3ccc(F)cc3O)o2)S1 [AS252424] (first compound 0.8 µM, partner dose 5 µM), the cell count worked out at 84%.

For the molecule `C[C@@H]1CCN(C(=O)CC#N)C[C@@H]1N(C)c1ncnc2[nH]ccc12` + COC(=O)c1sccc1S(=O)(=O)Nc1ccc(Nc2ccccc2)cc1OC [GSK0660] (first compound 5 µM, partner dose 5 µM), the cell count was 116%.

In turn, `COc1cc(Nc2ncc(F)c(Nc3ccc4c(n3)NC(=O)C(C)(C)O4)n2)cc(OC)c1OC` [Tamatinib] + O=C(Nc1ccccc1)c1cc([N+](=O)[O-])ccc1Cl [GW9662] (first compound 2 µM, partner dose 10 µM) gave a cell count of 47.5%.

`CC1(C)NC(=O)N(c2ccc([N+](=O)[O-])c(C(F)(F)F)c2)C1=O` [nilutamide] + CCN(CC)CCCCNc1ncc2cc(-c3cc(OC)cc(OC)c3)c(NC(=O)NC(C)(C)C)nc2n1 [PD173074] (first compound 5 µM, partner dose 0.5 µM) had a cell count of 116%.

The molecule `Cn1cncc1[C@@](N)(c1ccc(Cl)cc1)c1ccc2c(c1)c(-c1cccc(Cl)c1)cc(=O)n2C` [tipifarnib] + COc1cc(N2CCC(N3CCN(C)CC3)CC2)ccc1Nc1ncc(Cl)c(Nc2ccccc2S(=O)(=O)C(C)C)n1 [NVP-TAE684] (first compound 0.05 µM, partner dose 0.4 µM) came in with a cell count of 75%.

`C[C@@H]1CCN(C(=O)CC#N)C[C@@H]1N(C)c1ncnc2[nH]ccc12` + Cn1cc(/C=C2\C(=O)Nc3cccnc32)c2ccccc21 [GW441756] (first compound 5 µM, partner dose 2 µM) had a cell count of 97.8%.

Molecule `CC1(C)NC(=O)N(c2ccc([N+](=O)[O-])c(C(F)(F)F)c2)C1=O` [nilutamide] + COc1cc2ncnc(Nc3ccc(Oc4ccccc4)cc3)c2cc1OC [SrcI1] (first compound 5 µM, partner dose 10 µM) displayed a cell count of 83.3%.

`Cn1cncc1[C@@](N)(c1ccc(Cl)cc1)c1ccc2c(c1)c(-c1cccc(Cl)c1)cc(=O)n2C` [tipifarnib] + O=C(O)C(=O)Nc1sc2c(c1C(=O)O)CCNC2 [TCS401] (first compound 0.05 µM, partner dose 8.33333 µM): the cell count was 90%.

Take `O=c1[nH]nc(Sc2ncc([N+](=O)[O-])s2)n1-c1ccc2c(c1)OCCO2` + Oc1nc(-c2ccc(C(F)(F)F)cc2)nc2c1CSCC2 [XAV939] (first compound 1 µM, partner dose 10 µM): the cell count amounted to 80.2%.
